# Data reported in the supplement of paper PMC8728848.
# Some of the results follow.
# B1: ECL (Erythrina cristagalli), Q6YD91 (protein)
# chain: VETISFSFSEFEPGNNDLTLQGAAIITQSGVLQLTKINQNGMPAWDSTGRTLYTKPVHIWDMTTGTVASFETRFSFSIEQPYTRPLPADGLVFFMGPTKSKPAQGYGYLGVFNNSKQDNSYQTLAVEFDTFSNPWDPPQVPHIGIDVNSIRSIKTQPFQLDNGQVANVVIKYDASSKILLAVLVYPSSGAIYTIAEIVDVKQVLPEWVDVGLSGATGAQRDAAETHDVYSWSFHASLPETND
# Legend:
# Experiment in all cases: glycan array binding signal (z-score within array); higher = stronger binding
# Details in all cases: glycan notation: IUPAC condensed, linker removed
# [1] = target: Gal(b1-3)GlcNAc(b1-3)Gal(b1-4)GlcNAc(b1-2)[Gal(b1-3)GlcNAc(b1-3)Gal(b1-4)GlcNAc(b1-6)]Man(a1-6)[Gal(b1-3)GlcNAc(b1-3)Gal(b1-4)GlcNAc(b1-2)Man(a1-3)]Man(b1-4)GlcNAc(b1-4)[Fuc(a1-6)]GlcNAc
# Procedure, shortened: (§1)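 Columns mapping to the same glycan were averaged after glycan names were converted to IUPAC-condensed notation. The data come from 3228 arrays in the Consortium for Functional Glycomics database, limited to those with an available protein sequence. Binding is reported as a within-array Z-score averaged across arrays of one protein sequence and across linkers.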
# [2] = target: Gal(b1-3)GlcNAc(b1-3)Gal(b1-4)GlcNAc(b1-3)Gal(b1-4)GlcNAc(b1-2)[Gal(b1-3)GlcNAc(b1-3)Gal(b1-4)GlcNAc(b1-3)Gal(b1-4)GlcNAc(b1-6)]Man(a1-6)[Gal(b1-3)GlcNAc(b1-3)Gal(b1-4)GlcNAc(b1-3)Gal(b1-4)GlcNAc(b1-2)Man(a1-3)]Man(b1-4)GlcNAc(b1-4)[Fuc(a1-6)]GlcNAc
# Procedure, shortened: as §1
# [3] = target: Gal(b1-3)GlcNAc(b1-3)Gal(b1-4)GlcNAc(b1-6)[Gal(b1-3)GlcNAc(b1-3)]Gal(b1-4)Glc
# Procedure, shortened: as §1
# [4] = target: Gal(b1-3)GlcNAc(b1-3)Gal(b1-4)[Fuc(a1-3)]GlcNAc
# Procedure, shortened: as §1
# [5] = target: Gal(b1-3)GlcNAc(b1-3)Gal(b1-4)[Fuc(a1-3)]GlcNAc(b1-6)[Gal(b1-3)GlcNAc(b1-3)]Gal(b1-4)Glc
# Procedure, shortened: as §1
# [6] = target: Gal(b1-3)GlcNAc(b1-3)GalNAc
# Procedure, shortened: as §1
# [7] = target: Gal(b1-3)GlcNAc(b1-6)Gal(b1-4)GlcNAc
# Procedure, shortened: as §1
# [8] = target: Gal(b1-3)GlcNAc(b1-6)GalNAc
# Procedure, shortened: as §1
# [9] = target: Gal(b1-3)GlcNAc(b1-6)[Gal(b1-3)]GalNAc
# Procedure, shortened: as §1
# [10] = target: Gal(b1-3)GlcNAc6S
# Procedure, shortened: as §1
# [11] = target: Gal(b1-3)[Fuc(a1-4)]GlcNAc
# Procedure, shortened: as §1
# [12] = target: Gal(b1-3)[Fuc(a1-4)]GlcNAc(b1-2)Man
# Procedure, shortened: as §1
# [13] = target: Gal(b1-3)[Fuc(a1-4)]GlcNAc(b1-2)Man(a1-3)[Gal(b1-3)[Fuc(a1-4)]GlcNAc(b1-2)Man(a1-6)]Man(b1-4)GlcNAc(b1-4)[Fuc(a1-6)]GlcNAc
# Procedure, shortened: as §1
# [14] = target: Gal(b1-3)[Fuc(a1-4)]GlcNAc(b1-3)Gal(b1-3)[Fuc(a1-4)]GlcNAc
# Procedure, shortened: as §1
# [15] = target: Gal(b1-3)[Fuc(a1-4)]GlcNAc(b1-3)Gal(b1-4)[Fuc(a1-3)]GlcNAc
# Procedure, shortened: as §1
# [16] = target: Gal(b1-3)[Fuc(a1-4)]GlcNAc(b1-6)GalNAc
# Procedure, shortened: as §1
# [17] = target: Gal(b1-3)[GlcNAc(b1-6)]GalNAc
# Procedure, shortened: as §1
# [18] = target: Gal(b1-3)[Neu5Ac(a2-6)]GalNAc
# Procedure, shortened: as §1
# [19] = target: Gal(b1-3)[Neu5Ac(a2-6)]GlcNAc(b1-4)Gal(b1-4)Glc
# Procedure, shortened: as §1
# [20] = target: Gal(b1-3)[Neu5Ac(b2-6)]GalNAc
# Procedure, shortened: as §1
# [21] = target: Gal(b1-4)Gal
# Procedure, shortened: as §1
# [22] = target: Gal(b1-4)GalNAc(a1-3)[Fuc(a1-2)]Gal(b1-4)GlcNAc
# Procedure, shortened: as §1
# [23] = target: Gal(b1-4)GalNAc(b1-3)[Fuc(a1-2)]Gal(b1-4)GlcNAc
# Procedure, shortened: as §1
# [24] = target: Gal(b1-4)Glc
# Procedure, shortened: as §1
# [25] = target: Gal(b1-4)Glc6S
# Procedure, shortened: as §1
# [26] = target: Gal(b1-4)GlcNAc
# Procedure, shortened: as §1
# [27] = target: Gal(b1-4)GlcNAc(a1-6)Gal(b1-4)GlcNAc
# Procedure, shortened: as §1
# [28] = target: Gal(b1-4)GlcNAc(b1-2)Man
# Procedure, shortened: as §1
# [29] = target: Gal(b1-4)GlcNAc(b1-2)Man(a1-3)Man(b1-4)GlcNAc(b1-4)GlcNAc
# Procedure, shortened: as §1
# [30] = target: Gal(b1-4)GlcNAc(b1-2)Man(a1-3)[Gal(b1-4)GlcNAc(b1-2)Man(a1-6)]Man(b1-4)GlcNAc(b1-4)GlcNAc
# Procedure, shortened: as §1
# [31] = target: Gal(b1-4)GlcNAc(b1-2)Man(a1-3)[Gal(b1-4)GlcNAc(b1-2)Man(a1-6)]Man(b1-4)GlcNAc(b1-4)[Fuc(a1-6)]GlcNAc
# Procedure, shortened: as §1
# [32] = target: Gal(b1-4)GlcNAc(b1-2)Man(a1-3)[Gal(b1-4)GlcNAc(b1-2)Man(a1-6)][Gal(b1-4)GlcNAc(b1-4)]Man(b1-4)GlcNAc(b1-4)[Fuc(a1-6)]GlcNAc
# Procedure, shortened: as §1
# [33] = target: Gal(b1-4)GlcNAc(b1-2)Man(a1-3)[Gal(b1-4)GlcNAc(b1-2)Man(a1-6)][GlcNAc(b1-4)]Man(b1-4)GlcNAc(b1-4)[Fuc(a1-6)]GlcNAc
# Procedure, shortened: as §1
# [34] = target: Gal(b1-4)GlcNAc(b1-2)Man(a1-3)[GlcNAc(b1-2)Man(a1-6)]Man(b1-4)GlcNAc(b1-4)GlcNAc
# Procedure, shortened: as §1
# [35] = target: Gal(b1-4)GlcNAc(b1-2)Man(a1-3)[GlcNAc(b1-4)][Gal(b1-4)GlcNAc(b1-2)Man(a1-6)]Man(b1-4)GlcNAc(b1-4)GlcNAc
# Procedure, shortened: as §1
# [36] = target: Gal(b1-4)GlcNAc(b1-2)Man(a1-3)[Man(a1-6)]Man(b1-4)GlcNAc(b1-4)GlcNAc
# Procedure, shortened: as §1
# [37] = target: Gal(b1-4)GlcNAc(b1-2)Man(a1-6)Man(b1-4)GlcNAc(b1-4)GlcNAc
# Procedure, shortened: as §1
# [38] = target: Gal(b1-4)GlcNAc(b1-2)Man(a1-6)[GlcNAc(b1-2)Man(a1-3)]Man(b1-4)GlcNAc(b1-4)GlcNAc
# Procedure, shortened: as §1
binder,measurement,setting,value
B1,glycan array binding signal (z-score),[1],-0.302
same,glycan array binding signal (z-score),[2],0.381
same,glycan array binding signal (z-score),[3],-0.186
same,glycan array binding signal (z-score),[4],-0.329
same,glycan array binding signal (z-score),[5],-0.28
same,glycan array binding signal (z-score),[6],-0.15
same,glycan array binding signal (z-score),[7],-0.345
same,glycan array binding signal (z-score),[8],-0.493
same,glycan array binding signal (z-score),[9],-0.221
same,glycan array binding signal (z-score),[10],-0.554
same,glycan array binding signal (z-score),[11],-0.281
same,glycan array binding signal (z-score),[12],-0.18
same,glycan array binding signal (z-score),[13],0.29
same,glycan array binding signal (z-score),[14],-0.349
same,glycan array binding signal (z-score),[15],-0.248
same,glycan array binding signal (z-score),[16],0.041
same,glycan array binding signal (z-score),[17],-0.279
same,glycan array binding signal (z-score),[18],-0.423
same,glycan array binding signal (z-score),[19],-0.373
same,glycan array binding signal (z-score),[20],-0.546
same,glycan array binding signal (z-score),[21],-0.086
same,glycan array binding signal (z-score),[22],-0.273
same,glycan array binding signal (z-score),[23],-0.355
same,glycan array binding signal (z-score),[24],-0.19
same,glycan array binding signal (z-score),[25],-0.156
same,glycan array binding signal (z-score),[26],0.036
same,glycan array binding signal (z-score),[27],-0.195
same,glycan array binding signal (z-score),[28],-0.311
same,glycan array binding signal (z-score),[29],0.144
same,glycan array binding signal (z-score),[30],0.745
same,glycan array binding signal (z-score),[31],0.114
same,glycan array binding signal (z-score),[32],2.23
same,glycan array binding signal (z-score),[33],1.56
same,glycan array binding signal (z-score),[34],0.18
same,glycan array binding signal (z-score),[35],0.248
same,glycan array binding signal (z-score),[36],0.069
same,glycan array binding signal (z-score),[37],-0.154
same,glycan array binding signal (z-score),[38],-0.136
